In all, about 52,000 compounds went through this assay and about 1,700 (3.3%) were called active. Rule as the data show it: active = survival mostly below about 52% (no sharp cut-off); inactive = mostly above about 56%. Some of the results follow.
test system: Wild type; test: S. aureus survival, RN4220 and DeltatarO strains – OD600, teichoic acid synthesis inhibitors, primary screen (AID 463173); conditions: S. aureus RN4220 wild type/DeltatarO growth, OD600, 18 h, active compounds read low, screened at 18.75 µg/mL (by protocol)

| SMILES | survival |
| --- | --- |
| Cc1cc(C)c(NC(=O)C(C)n2nnc3sc4c(c3c2=O)CCCC4)c(C)c1 (configuration not stated) | inactive: 92% |
| COc1ccc(Nc2oc(-c3ccc(COc4ccccc4C)o3)nc2C#N)cc1 | inactive: 86% |
| Cc1cc(C)cc(N2C(=O)N(Cc3cccc(F)c3)c3ccccc3S2(=O)=O)c1 | inactive: 105% |
| Cc1ccc(C(=O)c2cn(Cc3ccc(Cl)cc3)c3nc(C)ccc3c2=O)cc1 | inactive: 53% |
| COc1ccc(N2CCN(C(=O)CSc3n[nH]c(-c4ccccc4Cl)n3)CC2)cc1 | inactive: 72% |
| Cc1ccc(CNC(=O)c2cc(-c3ccc(Cl)cc3)on2)cc1 | inactive: 90% |
| Cc1cc(NC(=O)CN2C(=O)c3cccnc3Sc3ccccc32)ccc1Br | inactive: 87% |
| c1cc2cc(C3=NCCN3)ccc2cc1C1=NCCN1 | inactive: 105% |
| COc1ccc(OC)c2sc(N(Cc3cccnc3)C(=O)c3ccco3)nc12 | inactive: 79% |
| CCc1ccccc1NC(=O)Nc1nnc(N(CC)c2ccccc2)s1 | inactive: 85% |
| CCCNC(=O)N(C)c1ncnnc1NC | inactive: 100% |
| CN(C)c1ccc(CNC(=O)CN2CCSc3ccc(S(=O)(=O)N(C)C)cc32)cc1 | inactive: 87% |
| Cc1ccc2oc(=O)c(S(=O)(=O)c3ccc(C(C)(C)C)cc3)cc2c1 | inactive: 81% |
| CCN(c1ccccc1)S(=O)(=O)c1nnc(NC(=O)COc2cccc(C)c2)s1 | inactive: 104% |
| CCCCCn1c(=O)[nH]c2cc(C(=O)N3CCN(c4cccc(C(F)(F)F)c4)CC3)ccc2c1=O | inactive: 70% |
| Cc1ccc(CNC(=O)CNS(=O)(=O)c2cccs2)cc1 | inactive: 71% |
| Cc1ccc(NC(=O)C2CCN(c3nn4cc(-c5ccc(C)cc5)nc4s3)CC2)cc1 | inactive: 60% |
| CCOc1ccc(NC(=O)Cn2c(=O)n(CC(=O)NCc3ccccc3Cl)c(=O)c3sccc32)cc1 | inactive: 164% |
| CC(C)(C)c1ccc(C(=O)Nc2sc3c(c2C#N)CCC(C(C)(C)C)C3)cc1 (configuration not stated) | inactive: 84% |
| O=C(Nc1ccc(Br)cc1)C1CCCN1S(=O)(=O)c1ccc(F)cc1 (configuration not stated) | inactive: 91% |
| COc1ccc(CNC(=O)c2oc3c(c2C)-c2nn(Cc4ccc(Cl)cc4)cc2CC3)cc1 | inactive: 77% |
| CCOC(=O)c1c(N2C(=O)C3C4C=CC(O4)C3C2=O)sc2c1CCCC2 (configuration not stated) | inactive: 110% |

| SMILES | survival |
| --- | --- |
| COc1cc(OC)c(NS(=O)(=O)c2c(C(=O)N3CCC(C)CC3)c(C)n(C)c2C)cc1Cl | active: -1% |
| Cc1nnc(NC(=O)CSCc2cc(=O)c3ccccc3[nH]2)s1 | inactive: 119% |
| COc1ccc(CCNC(=O)CCn2c(=O)c3ccccc3n(Cc3ccccc3)c2=O)cc1OC | inactive: 97% |
| CC(C)c1nn2c(=O)cc(COC(=O)c3ccccc3NC(=O)c3cccc(Cl)c3)nc2s1 | inactive: 69% |
| Cc1cc(Nc2ccc(C(=O)O)c(O)c2)n2ncnc2n1 | inactive: 72% |
| C=CCN1C(=O)CN=C1Nc1ccccc1 | inactive: 106% |
| CN(C)CCNc1oc(-c2ccc(COc3ccc(Cl)cc3)o2)nc1C#N | inactive: 82% |
| Cc1cc(NC(=O)Cc2ccccc2)no1 | inactive: 111% |
| Cc1nc2ccn(Cc3cccnc3)c(=O)c2cc1C(=O)N1CCN(c2ccc(F)cc2)CC1 | inactive: 82% |
| COC(=O)c1ccccc1NC(=O)c1cnc2c(-c3cccc(C)c3)c(C)nn2c1C | inactive: 133% |
| CCS(=O)(=O)N1CC(=O)N(c2ccc(Cl)cc2)C(C)(C(=O)NC2CCCCCC2)C1 (configuration not stated) | inactive: 115% |
| COc1ccc(CCNC(=O)C(C)n2c(=O)cc(C(F)(F)F)c3c(C)nn(C)c32)cc1OC (configuration not stated) | inactive: 82% |
| Cc1cc(C)cc(Oc2nc3c(C)cccn3c(=O)c2/C=C(\C#N)c2nc3ccccc3s2)c1 | inactive: 128% |
| COc1ccc(N2CCN(Cc3nnc(-c4cccc(Br)c4)o3)CC2)cc1 | inactive: 85% |
| CCc1ccc(C(=O)c2cn(Cc3ccc(F)cc3)c3cc(OC)c(OC)cc3c2=O)cc1 | inactive: 85% |
| CC(=O)c1cc(-c2ccc(F)cc2)n(CC(=O)Nc2cc(C)cc(C)c2)c1C | inactive: 66% |
| COc1ccccc1Cc1nc2ccccc2nc1SCC(=O)N1CCN(c2ccccc2)CC1 | inactive: 80% |
| Cc1ccc(C(C)C)c(OCCSc2nc3ccccc3n2CC(O)CO)c1 (configuration not stated) | inactive: 61% |
| Cc1ccc(C)c(Cn2c(C(=O)OC(C)C)cc3c2ccn3C)c1 | inactive: 109% |
| COc1ccc(CCn2c3c(c(=O)[nH]c2=O)C(NC(=O)c2ccc(C(C)(C)C)cc2)(C(F)(F)F)C(=O)N3)cc1OC (configuration not stated) | inactive: 87% |
| CCc1[nH]nc2c1C(c1ccc(F)c(Oc3ccccc3)c1)C(C#N)=C(N)O2 (configuration not stated) | inactive: 114% |
| COc1cccc(NC(=O)/C(C#N)=C/c2c(C)n(Cc3ccc(Cl)cc3)c3ccccc23)c1 | inactive: 81% |

| SMILES | survival |
| --- | --- |
| CC(C)Cn1c(-c2ccc(S(=O)(=O)N3CCOCC3)cc2)csc1=Nc1cc(Cl)ccc1Cl | inactive: 82% |
| O=C(NCc1ccco1)c1ccc2c(c1)N(Cc1ccc(Cl)cc1)C(=O)c1ccccc1S2 | inactive: 82% |
| CCOc1ccc(Nc2nc3c(S(=O)(=O)c4ccc(C(C)C)cc4)nnn3c3ccsc23)cc1 | inactive: 81% |
| Cc1cc2nc(-c3ccc(NC(=O)c4cc5ccccc5o4)cc3)oc2cc1C | inactive: 83% |
| CCN(CC)CN1C(=O)C2C3c4ccccc4C(c4ccccc43)C2C1=O (configuration not stated) | inactive: 111% |
| Cc1sc2ncn(CC(=O)Nc3ccc(C(C)C)cc3)c(=O)c2c1S(=O)(=O)N1CCN(c2ncccn2)CC1 | inactive: 85% |
| CC1(C)N=C2C(=[N+]1[O-])CCC/C2=N/O | inactive: 110% |
| CCCCNC(=O)CSc1nc2n[nH]c(C)c2c(=N)n1-c1cccc(Cl)c1C | inactive: 136% |
| Cc1cccc(-c2noc(-c3cccnc3NCc3ccc(Cl)cc3)n2)c1 | inactive: 84% |
| CC1(C)N=C(SCc2ccccc2Cl)c2ccccc2N1 | inactive: 119% |
| Cc1ccc(S(=O)(=O)c2nnn3c2nc(NC(C)C)c2cc(Cl)ccc23)cc1C | inactive: 86% |
| COc1ccc2c(c1)sc1ncc(C(=O)NCc3ccccc3F)c(=O)n12 | inactive: 83% |
| O=C(OC(C(=O)NCc1ccc2c(c1)OCO2)c1ccccc1F)c1ccco1 (configuration not stated) | inactive: 101% |
| COc1ccc(S(=O)(=O)Nc2ccc3oc4c(c3c2)CCCC4)cc1 | inactive: 41% |
| O=S(=O)(c1ccccc1)N1CCCC(C(F)(F)F)C1 (configuration not stated) | inactive: 110% |
| Cc1ccccc1C(=O)N1CC(=O)Nc2ccc(Cl)cc2C1c1ccccc1 (configuration not stated) | inactive: 66% |
| O=C(CCSCc1cccc(Cl)c1)N1CCN(c2ccc(Cl)cc2)CC1 | inactive: 80% |
| COc1ccc(CCNC(=O)CCCCn2c(=O)c3ccccc3n(CC(=O)Nc3c(C)cccc3C)c2=O)cc1OC | inactive: 142% |
| C#CCn1c(=NC(=O)c2ccc3c(c2)OCCO3)sc2cc(OC)c(OC)cc21 | inactive: 73% |
| CCOc1ccc(NS(=O)(=O)c2ccc(C(=O)N(C)C)s2)cc1 | inactive: 67% |
| O=C(c1cccc(Cl)c1)N1c2nc(-c3ccco3)nn2C2(CCCCC2)[C@@H]2CCCC[C@@H]21 | inactive: 79% |
| Cc1nn(-c2ccc(N3CCCCC3)nn2)c(C)c1CCC(=O)Nc1ccc(F)cc1F | inactive: 135% |

| SMILES | survival |
| --- | --- |
| COc1cc(OC)cc(N2C(=O)N(Cc3ccc(C(C)(C)C)cc3)c3ccccc3S2(=O)=O)c1 | inactive: 64% |
| COc1ccc(S(=O)(=O)N2CCC(C(=O)Nc3ccccc3)CC2)cc1OC | inactive: 70% |
| CCOC(=O)c1c(C)[nH]c(C)c1S(=O)(=O)NCC(=O)Nc1cccc(C#N)c1 | inactive: 121% |
| COC(=O)c1scc(-c2ccc(C)cc2)c1S(=O)(=O)N1CCN(c2ccccc2)CC1 | inactive: 64% |
| COc1cccc(NC(=O)CC(=O)Nc2ccc3nc4n(c(=O)c3c2)CCCCC4)c1 | inactive: 84% |
| Cc1nc2ccc(S(=O)(=O)CCC(=O)Nc3ccc(Cl)cc3)cc2s1 | inactive: 89% |
| COc1ccc(OC)c(CNC(=O)c2ccc3c(c2)c(C)c(C)n3Cc2ccc(Cl)cc2)c1 | inactive: 82% |
| Cc1ccc(C)c(CN2C(=O)C(O)(c3c(C)[nH]c4ccccc34)c3ccccc32)c1 (configuration not stated) | inactive: 69% |
| O=C(C1CCCN(S(=O)(=O)c2cccc3nsnc23)C1)N1CCN(c2ccccc2)CC1 (configuration not stated) | inactive: 86% |
| CCOc1ccc(NC(=O)c2c(NCc3cccc(OC)c3OC)sc3c2CCC3)cc1 | inactive: 71% |
| CCc1ccc(NC(=O)CN(c2ccc(Cl)cc2)S(=O)(=O)c2ccsc2C(=O)OC)cc1 | inactive: 159% |
| CC1(C)C/C(=N\O)C(C(O)c2ccccc2)C(C)(C)N1 (configuration not stated) | inactive: 104% |
| Nc1c(C(=O)Nc2ccccc2Cl)c2ccccn2c1C(=O)c1ccccc1 | inactive: 101% |
| Cc1cc(N2CCC(C)CC2)nc2ccc(NC(=O)Cc3c(F)cccc3Cl)cc12 | inactive: 84% |
| Cc1ccc(Cn2cc(S(=O)(=O)c3cccc(Cl)c3)c(=O)c3cc(F)c(N4CCCCC4)cc32)cc1 | inactive: 77% |
| CCOC(=O)N1CCN(C(=O)CN(c2ccccc2F)S(=O)(=O)c2ccc(C)cc2)CC1 | inactive: 69% |
| COC(=O)c1c(NC(=O)Cc2coc3cc(C)ccc23)sc2c1CCC2 | inactive: 106% |
| Cc1cc(C)cc(NC(=O)CSc2nc(=O)n(CCN3CCOCC3)c3c2CCC3)c1 | inactive: 68% |
| O=C(O)C1C2CCCCC21 (configuration not stated) | inactive: 109% |
| CCOC(=O)c1noc2nc(C)n(CC(=O)NC(C)CC)c(=O)c12 (configuration not stated) | inactive: 134% |
| O=C(NCc1cccs1)c1ccc2c(c1)N(Cc1cccc(F)c1)C(=O)c1ccccc1S2 | inactive: 87% |

Reference: PubChem BioAssay AID463173 (ICCB-Longwood Screening Facility, Harvard Medical School, 2010)
